# Publication PMC9911399, “Two distinct binding modes provide the RNA-binding protein RbFox with extraordinary sequence specificity”
# Residue numbers refer to the chain shown, from its start. The list shows a part of the results.
# T1: RBFOX1 RRM RbFoxmut (Fox-RRM*) (Homo sapiens, UniProt Q9NWB1 109-208, R118D;E147R;N151S;E152T)
# T1 sequence: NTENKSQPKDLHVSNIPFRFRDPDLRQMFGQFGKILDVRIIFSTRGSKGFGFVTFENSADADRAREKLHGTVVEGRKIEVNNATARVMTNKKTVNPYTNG
# B1: GAAUGCG (DNA:RNA)
# RNA: GGGAGACCGGAAUUCAGAUUGUCCGAAUGCGUUAAAUCCCGUCGUAGCCACCA
# DNA 1: CAATCTGAATTCCGGTCTCCC
# DNA 2: TGGTGGCTACGACGGGATT
# B2: UGAUGUU (DNA:RNA)
# RNA: B1 RNA with G25U, A26G, C30U, G31U
# DNA 1: CAATCTGAATTCCGGTCTCCC
# DNA 2: TGGTGGCTACGACGGGATT
# B3: GAAAGAG (DNA:RNA)
# RNA: B1 RNA with U28A, C30A
# DNA 1: CAATCTGAATTCCGGTCTCCC
# DNA 2: TGGTGGCTACGACGGGATT
# B4: CACAAUC (DNA:RNA)
# RNA: B1 RNA with G25C, A27C, U28A, G29A, C30U, G31C
# DNA 1: CAATCTGAATTCCGGTCTCCC
# DNA 2: TGGTGGCTACGACGGGATT
# B5: CCUUGGU (DNA:RNA)
# RNA: B1 RNA with G25C, A26C, A27U, C30G, G31U
# DNA 1: CAATCTGAATTCCGGTCTCCC
# DNA 2: TGGTGGCTACGACGGGATT
# B6: CCCCAUC (DNA:RNA)
# RNA: GGGAGACCGGAAUUCAGAUUGUCCCCCCAUCUUAAAUCCCGUCGUAGCCACCA
# DNA 1: CAATCTGAATTCCGGTCTCCC
# DNA 2: TGGTGGCTACGACGGGATT
# B7: UAAGUAG (DNA:RNA)
# RNA: B1 RNA with G25U, U28G, G29U, C30A
# DNA 1: CAATCTGAATTCCGGTCTCCC
# DNA 2: TGGTGGCTACGACGGGATT
# B8: CUGGAUA (DNA:RNA)
# RNA: B6 RNA with C26U, C27G, C28G, C31A
# DNA 1: CAATCTGAATTCCGGTCTCCC
# DNA 2: TGGTGGCTACGACGGGATT
# B9: AACGAAA (DNA:RNA)
# RNA: B6 RNA with C25A, C26A, C28G, U30A, C31A
# DNA 1: CAATCTGAATTCCGGTCTCCC
# DNA 2: TGGTGGCTACGACGGGATT
# B10: GCCGCGC (DNA:RNA)
# RNA: B6 RNA with C25G, C28G, A29C, U30G
# DNA 1: CAATCTGAATTCCGGTCTCCC
# DNA 2: TGGTGGCTACGACGGGATT
# B11: UCUAGAA (DNA:RNA)
# RNA: B6 RNA with C25U, C27U, C28A, A29G, U30A, C31A
# DNA 1: CAATCTGAATTCCGGTCTCCC
# DNA 2: TGGTGGCTACGACGGGATT
# B12: GGUCAAC (DNA:RNA)
# RNA: B6 RNA with C25G, C26G, C27U, U30A
# DNA 1: CAATCTGAATTCCGGTCTCCC
# DNA 2: TGGTGGCTACGACGGGATT
# B13: AAAUGUG (DNA:RNA)
# RNA: B1 RNA with G25A, C30U
# DNA 1: CAATCTGAATTCCGGTCTCCC
# DNA 2: TGGTGGCTACGACGGGATT
# B14: CUCAUGC (DNA:RNA)
# RNA: B6 RNA with C26U, C28A, A29U, U30G
# DNA 1: CAATCTGAATTCCGGTCTCCC
# DNA 2: TGGTGGCTACGACGGGATT
# B15: AGGAACG (DNA:RNA)
# RNA: B1 RNA with G25A, A26G, A27G, U28A, G29A
# DNA 1: CAATCTGAATTCCGGTCTCCC
# DNA 2: TGGTGGCTACGACGGGATT
# B16: AGACAUU (DNA:RNA)
# RNA: B6 RNA with C25A, C26G, C27A, C31U
# DNA 1: CAATCTGAATTCCGGTCTCCC
# DNA 2: TGGTGGCTACGACGGGATT
# B17: UGGAUUU (DNA:RNA)
# RNA: B6 RNA with C25U, C26G, C27G, C28A, A29U, C31U
# DNA 1: CAATCTGAATTCCGGTCTCCC
# DNA 2: TGGTGGCTACGACGGGATT
# B18: UAUAAUC (DNA:RNA)
# RNA: B6 RNA with C25U, C26A, C27U, C28A
# DNA 1: CAATCTGAATTCCGGTCTCCC
# DNA 2: TGGTGGCTACGACGGGATT
# B19: GGUCGUA (DNA:RNA)
# RNA: B6 RNA with C25G, C26G, C27U, A29G, C31A
# DNA 1: CAATCTGAATTCCGGTCTCCC
# DNA 2: TGGTGGCTACGACGGGATT
# B20: GAGCCUC (DNA:RNA)
# RNA: B6 RNA with C25G, C26A, C27G, A29C
# DNA 1: CAATCTGAATTCCGGTCTCCC
# DNA 2: TGGTGGCTACGACGGGATT
# B21: AAAAUGC (DNA:RNA)
# RNA: B1 RNA with G25A, U28A, G29U, C30G, G31C
# DNA 1: CAATCTGAATTCCGGTCTCCC
# DNA 2: TGGTGGCTACGACGGGATT
# B22: GAGGCUU (DNA:RNA)
# RNA: B1 RNA with A27G, U28G, G29C, C30U, G31U
# DNA 1: CAATCTGAATTCCGGTCTCCC
# DNA 2: TGGTGGCTACGACGGGATT
# B23: GCACAGG (DNA:RNA)
# RNA: B6 RNA with C25G, C27A, U30G, C31G
# DNA 1: CAATCTGAATTCCGGTCTCCC
# DNA 2: TGGTGGCTACGACGGGATT
# B24: AGUUCAC (DNA:RNA)
# RNA: B6 RNA with C25A, C26G, C27U, C28U, A29C, U30A
# DNA 1: CAATCTGAATTCCGGTCTCCC
# DNA 2: TGGTGGCTACGACGGGATT
# B25: AGUGGAG (DNA:RNA)
# RNA: B1 RNA with G25A, A26G, A27U, U28G, C30A
# DNA 1: CAATCTGAATTCCGGTCTCCC
# DNA 2: TGGTGGCTACGACGGGATT
# B26: CACACAG (DNA:RNA)
# RNA: B6 RNA with C26A, C28A, A29C, U30A, C31G
# DNA 1: CAATCTGAATTCCGGTCTCCC
# DNA 2: TGGTGGCTACGACGGGATT
# B27: ACCCGUG (DNA:RNA)
# RNA: B6 RNA with C25A, A29G, C31G
# DNA 1: CAATCTGAATTCCGGTCTCCC
# DNA 2: TGGTGGCTACGACGGGATT
# B28: AUCUUUG (DNA:RNA)
# RNA: B6 RNA with C25A, C26U, C28U, A29U, C31G
# DNA 1: CAATCTGAATTCCGGTCTCCC
# DNA 2: TGGTGGCTACGACGGGATT
# B29: UGCACGC (DNA:RNA)
# RNA: B6 RNA with C25U, C26G, C28A, A29C, U30G
# DNA 1: CAATCTGAATTCCGGTCTCCC
# DNA 2: TGGTGGCTACGACGGGATT
# B30: UCAGACC (DNA:RNA)
# RNA: B6 RNA with C25U, C27A, C28G, U30C
# DNA 1: CAATCTGAATTCCGGTCTCCC
# DNA 2: TGGTGGCTACGACGGGATT
# B31: CUAUCGG (DNA:RNA)
# RNA: B1 RNA with G25C, A26U, G29C, C30G
# DNA 1: CAATCTGAATTCCGGTCTCCC
# DNA 2: TGGTGGCTACGACGGGATT
# Target: T1, RBFOX1 RRM RbFoxmut (Fox-RRM*)
# Test: EMSA; HiTS-Eq, 1 nM pool, 10 min; buffer printed only for the single-RNA assays: 10 mM Tris pH 7.5, 150 mM NaCl, 3.4 mM EDTA, 0.001% NP-40, 30 C
# Settings: tags: His6 N-terminal (pET28a); label: 5' 32P
# In short: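 Purified RbFox RRM (wild type or mutant) was equilibrated for 10 min in 50 µL with 1 nM of a 5′-radiolabelled pool of RNA with 7 randomized nucleotides, its flanks annealed to DNA oligonucleotides, across increasing protein concentrations. Free RNA was separated by 8% native PAGE, excised, reverse-transcribed, PCR-barcoded and sequenced on an Illumina HiSeq 2500. Relative association constants came from read-count changes of each variant against the control reaction, normalised to the cognate motif.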
row,Binder,binding signal
1,B1,0.763 KA relative to UGCAUGU
2,B2,0.111 KA relative to UGCAUGU
3,B3,0.0755 KA relative to UGCAUGU
4,B4,0.0401 KA relative to UGCAUGU
5,B5,0.154 KA relative to UGCAUGU
6,B6,0.102 KA relative to UGCAUGU
7,B7,0.107 KA relative to UGCAUGU
8,B8,0.0878 KA relative to UGCAUGU
9,B9,0.113 KA relative to UGCAUGU
10,B10,0.0855 KA relative to UGCAUGU
11,B11,0.096 KA relative to UGCAUGU
12,B12,0.052 KA relative to UGCAUGU
13,B13,0.107 KA relative to UGCAUGU
14,B14,0.112 KA relative to UGCAUGU
15,B15,0.576 KA relative to UGCAUGU
16,B16,0.0594 KA relative to UGCAUGU

row,Binder,binding signal
1,B17,0.0654 KA relative to UGCAUGU
2,B18,0.0553 KA relative to UGCAUGU
3,B19,0.122 KA relative to UGCAUGU
4,B20,0.061 KA relative to UGCAUGU
5,B21,0.0633 KA relative to UGCAUGU
6,B22,0.0844 KA relative to UGCAUGU
7,B23,0.115 KA relative to UGCAUGU
8,B24,0.079 KA relative to UGCAUGU
9,B25,0.124 KA relative to UGCAUGU
10,B26,0.0853 KA relative to UGCAUGU
11,B27,0.111 KA relative to UGCAUGU
12,B28,0.132 KA relative to UGCAUGU
13,B29,0.232 KA relative to UGCAUGU
14,B30,0.0827 KA relative to UGCAUGU
15,B31,0.0809 KA relative to UGCAUGU
